{"source": "the antibiotic and cytotoxicity screens of Wong et al. (2023)", "note": "The other results are listed elsewhere or left out.", "data": [{"tested_on": "HSkMC (human skeletal muscle cells)", "experiment": "cytotoxicity call (relative viability < 0.9)", "conditions": "10 µM", "values": [{"smiles": "COc1ccc(S(=O)(=O)Nc2ccc3c(c2)C(=O)N([C@@H](C)CO)C[C@@H](C)[C@H](CN(C)Cc2ccc(Cl)c(Cl)c2)OCCCC[C@@H](C)O3)cc1", "cytotoxicity call": "active"}, {"smiles": "CC(C)(C)[S@@](=O)N1Cc2cc(C(=O)NCCN3CCCCC3)nc(-c3cccc(-c4cccc(C#N)c4)c3)c2[C@H]1CCO", "cytotoxicity call": "inactive"}, {"smiles": "C[C@H](CO)N1C[C@H](C)[C@@H](CN(C)CC2CC2)Oc2c(NS(=O)(=O)c3cccs3)cccc2C1=O", "cytotoxicity call": "inactive"}, {"smiles": "Cc1noc(C)c1S(=O)(=O)N(C)C[C@@H]1OCCCC[C@H](C)Oc2ccc(NS(C)(=O)=O)cc2C(=O)N([C@H](C)CO)C[C@H]1C", "cytotoxicity call": "inactive"}, {"smiles": "CC(C)NC(=O)N(C)C[C@H]1Oc2cc(C#Cc3cccc(F)c3)ccc2S(=O)(=O)N([C@H](C)CO)C[C@@H]1C", "cytotoxicity call": "inactive"}, {"smiles": "C[C@H]1CN([C@@H](C)CO)C(=O)Cc2cc(NC(=O)Cc3ccccc3)ccc2O[C@@H]1CN(C)C(=O)Nc1cccc2ccccc12", "cytotoxicity call": "inactive"}, {"smiles": "CNC[C@@H]1OCCCC[C@@H](C)Oc2ccc(NC(=O)Nc3ccc(C(F)(F)F)cc3)cc2C(=O)N([C@@H](C)CO)C[C@H]1C", "cytotoxicity call": "inactive"}, {"smiles": "Cc1noc(C)c1S(=O)(=O)Nc1ccc2c(c1)C(=O)N([C@H](C)CO)C[C@H](C)[C@@H](CN(C)S(=O)(=O)c1ccc(F)cc1)O2", "cytotoxicity call": "inactive"}, {"smiles": "C[C@@H]1CN([C@@H](C)CO)C(=O)c2cc(NC(=O)NC3CCCCC3)ccc2O[C@@H](C)CCCCO[C@H]1CN(C)Cc1ccc(Cl)c(Cl)c1", "cytotoxicity call": "inactive"}, {"smiles": "C[C@@H]1CN([C@H](C)CO)C(=O)c2cccc(NC(=O)C3CCCCC3)c2O[C@H]1CN(C)Cc1ccc(Cl)c(Cl)c1", "cytotoxicity call": "inactive"}, {"smiles": "C#CCN(O[C@@H](/C=C/[C@@H](O)Cc1ccccc1)C1CC1)[C@@H](Cc1ccc(-n2cc(CCC(=O)NO)nn2)cc1)C(=O)OC", "cytotoxicity call": "inactive"}]}, {"tested_on": "HepG2", "experiment": "cytotoxicity call (relative viability < 0.9)", "conditions": "10 µM", "values": [{"smiles": "COC(=O)[C@@H](N)c1cccc(OC)c1", "cytotoxicity call": "inactive"}, {"smiles": "C[C@@H]1CN([C@@H](C)CO)C(=O)c2cc(NC(=O)C3CCCCC3)ccc2O[C@@H](C)CCCCO[C@@H]1CN(C)S(=O)(=O)c1ccccc1", "cytotoxicity call": "inactive"}, {"smiles": "O=C(C[C@H]1C=C[C@H](NS(=O)(=O)c2ccc(F)cc2)[C@H](CO)O1)NCc1ccc(Cl)c(Cl)c1", "cytotoxicity call": "inactive"}, {"smiles": "COc1ccc(CN(C)C[C@@H]2OCCCC[C@@H](C)Oc3ccc(NC(=O)Nc4ccc(OC)cc4)cc3C(=O)N([C@@H](C)CO)C[C@@H]2C)cc1", "cytotoxicity call": "active"}, {"smiles": "C[C@@H]1CN([C@@H](C)CO)C(=O)c2cc(NC(=O)C3CC3)ccc2O[C@H]1CN(C)Cc1ccc2c(c1)OCO2", "cytotoxicity call": "inactive"}, {"smiles": "COC(=O)C1(N2CC3=C[C@@H]([C@@H](O)Cc4ccccc4)n4c(=O)n(C)c(=O)n4[C@@H]3[C@@H](C3CC3)O2)CCCC1", "cytotoxicity call": "inactive"}, {"smiles": "COc1cc(C)c(C(=O)Oc2cc(C)c(C(=O)O)c(O)c2)c(O)c1", "cytotoxicity call": "inactive"}, {"smiles": "C[C@@H]1CN([C@@H](C)CO)C(=O)c2cc(NS(=O)(=O)c3cn(C)cn3)ccc2O[C@H]1CN(C)S(=O)(=O)c1cn(C)cn1", "cytotoxicity call": "inactive"}, {"smiles": "C[C@@H]1CN([C@@H](C)CO)C(=O)c2cccc(NS(=O)(=O)c3cccs3)c2O[C@@H]1CN(C)S(=O)(=O)c1cn(C)cn1", "cytotoxicity call": "inactive"}, {"smiles": "COc1ccc(NC(=O)Nc2ccc3c(c2)C(=O)N([C@@H](C)CO)C[C@@H](C)[C@@H](CN(C)Cc2ccc(C(F)(F)F)cc2)O3)cc1", "cytotoxicity call": "active"}, {"smiles": "Cc1ccc(-c2nc(Nc3cccc(Cl)c3)sc2C)cc1", "cytotoxicity call": "inactive"}, {"smiles": "COc1ccc(cc1)S(=O)(=O)N1C[C@]2(CN(Cc3ccncc3)[C@H](CO)c3[nH]c4cc(ccc4c32)OC)C1", "cytotoxicity call": "inactive"}, {"smiles": "CC(C)NC(=O)Nc1ccc2c(c1)C(=O)N([C@@H](C)CO)C[C@@H](C)[C@H](CN(C)Cc1ccc(C(F)(F)F)cc1)OCCCC[C@H](C)O2", "cytotoxicity call": "inactive"}, {"smiles": "O=C(O)CCCCCCCC(=O)O", "cytotoxicity call": "inactive"}, {"smiles": "O=C(NCCO)c1cc2ccccc2c(=O)s1", "cytotoxicity call": "inactive"}, {"smiles": "C[C@H]1CCCCO[C@@H](CN(C)C(=O)Nc2ccc3c(c2)OCO3)[C@@H](C)CN([C@@H](C)CO)C(=O)c2cc(NC(=O)CCC(F)(F)F)ccc2O1", "cytotoxicity call": "inactive"}, {"smiles": "C[C@@H]1CN([C@H](C)CO)C(=O)c2cc(NS(=O)(=O)c3ccc(Cl)cc3)ccc2O[C@@H](C)CCCCO[C@H]1CN(C)S(=O)(=O)c1ccc(Cl)cc1", "cytotoxicity call": "inactive"}, {"smiles": "COCC(=O)Nc1ccc2c(c1)[C@@H]1C[C@H](CC(=O)N3CCOCC3)O[C@@H](CO)[C@@H]1O2", "cytotoxicity call": "inactive"}, {"smiles": "COC(=O)C(CC#Cc1ccc2c(c1)[C@]1(C(=O)N2)[C@H](c2ccc(OCCO)cc2)N2[C@H](c3ccccc3)[C@H](c3ccccc3)OC(=O)[C@H]2[C@@H]1C(=O)N1CCc2cc(OC)c(OC)cc2C1)C(=O)OC", "cytotoxicity call": "inactive"}, {"smiles": "COc1ccc(S(=O)(=O)N(C)C[C@@H]2OCCCC[C@@H](C)Oc3ccc(NC(=O)C4CCCCC4)cc3C(=O)N([C@H](C)CO)C[C@@H]2C)cc1", "cytotoxicity call": "inactive"}, {"smiles": "C[C@@H]1CCCCO[C@@H](CN(C)CC2CCCCC2)[C@H](C)CN([C@H](C)CO)C(=O)c2cc(NC(=O)NC3CCCCC3)ccc2O1", "cytotoxicity call": "inactive"}, {"smiles": "O=C1N[C@H](c2ccccc2)COCc2cn(nn2)CC[C@@H](Cc2ccc(C(F)(F)F)cc2)C(=O)N[C@H](c2ccccc2)COCc2cn(nn2)CC[C@H]1Cc1ccc(C(F)(F)F)cc1", "cytotoxicity call": "inactive"}, {"smiles": "Cc1noc(C)c1NC(=O)N(C)C[C@@H]1Oc2ccc(NC(=O)Nc3ccc(C(F)(F)F)cc3)cc2C(=O)N([C@H](C)CO)C[C@@H]1C", "cytotoxicity call": "inactive"}, {"smiles": "C[C@@H]1CN([C@@H](C)CO)C(=O)c2cc(C#Cc3ccccc3F)cnc2O[C@@H]1CN(C)C(=O)c1ccc2c(c1)OCO2", "cytotoxicity call": "inactive"}, {"smiles": "C[C@H]1CN([C@@H](C)CO)C(=O)Cc2cc(NC(=O)CCC(F)(F)F)ccc2O[C@H]1CN(C)Cc1ccc(Oc2ccccc2)cc1", "cytotoxicity call": "inactive"}, {"smiles": "CCCNC(=O)N[C@@H]1C=C[C@@H](CC(=O)N2CCN(C)CC2)O[C@H]1CO", "cytotoxicity call": "inactive"}, {"smiles": "C[C@H](CO)N1C[C@H](C)[C@H](CN(C)C(=O)Nc2ccccc2)OCCCC[C@H](C)Oc2ccc(NS(=O)(=O)c3ccccc3)cc2C1=O", "cytotoxicity call": "inactive"}, {"smiles": "O=C(c1cnc2ccccc2c1)C1CC1", "cytotoxicity call": "inactive"}, {"smiles": "C[C@@H]1CN([C@H](C)CO)C(=O)Cc2cc(NC(=O)Nc3cccc4ccccc34)ccc2O[C@@H]1CN(C)Cc1ccccc1", "cytotoxicity call": "active"}, {"smiles": "COc1ccc(S(=O)(=O)Nc2ccc3c(c2)C(=O)N([C@@H](C)CO)C[C@@H](C)[C@H](CN(C)Cc2ccc(Cl)c(Cl)c2)OCCCC[C@@H](C)O3)cc1", "cytotoxicity call": "active"}, {"smiles": "CC(C)(C)[S@@](=O)N1Cc2cc(C(=O)NCCN3CCCCC3)nc(-c3cccc(-c4cccc(C#N)c4)c3)c2[C@H]1CCO", "cytotoxicity call": "inactive"}, {"smiles": "C[C@H](CO)N1C[C@H](C)[C@@H](CN(C)CC2CC2)Oc2c(NS(=O)(=O)c3cccs3)cccc2C1=O", "cytotoxicity call": "inactive"}, {"smiles": "Cc1noc(C)c1S(=O)(=O)N(C)C[C@@H]1OCCCC[C@H](C)Oc2ccc(NS(C)(=O)=O)cc2C(=O)N([C@H](C)CO)C[C@H]1C", "cytotoxicity call": "inactive"}, {"smiles": "CC(C)NC(=O)N(C)C[C@H]1Oc2cc(C#Cc3cccc(F)c3)ccc2S(=O)(=O)N([C@H](C)CO)C[C@@H]1C", "cytotoxicity call": "inactive"}, {"smiles": "C[C@H]1CN([C@@H](C)CO)C(=O)Cc2cc(NC(=O)Cc3ccccc3)ccc2O[C@@H]1CN(C)C(=O)Nc1cccc2ccccc12", "cytotoxicity call": "inactive"}, {"smiles": "CNC[C@@H]1OCCCC[C@@H](C)Oc2ccc(NC(=O)Nc3ccc(C(F)(F)F)cc3)cc2C(=O)N([C@@H](C)CO)C[C@H]1C", "cytotoxicity call": "inactive"}, {"smiles": "Cc1noc(C)c1S(=O)(=O)Nc1ccc2c(c1)C(=O)N([C@H](C)CO)C[C@H](C)[C@@H](CN(C)S(=O)(=O)c1ccc(F)cc1)O2", "cytotoxicity call": "inactive"}, {"smiles": "C[C@@H]1CN([C@@H](C)CO)C(=O)c2cc(NC(=O)NC3CCCCC3)ccc2O[C@@H](C)CCCCO[C@H]1CN(C)Cc1ccc(Cl)c(Cl)c1", "cytotoxicity call": "active"}, {"smiles": "C[C@@H]1CN([C@H](C)CO)C(=O)c2cccc(NC(=O)C3CCCCC3)c2O[C@H]1CN(C)Cc1ccc(Cl)c(Cl)c1", "cytotoxicity call": "inactive"}, {"smiles": "C#CCN(O[C@@H](/C=C/[C@@H](O)Cc1ccccc1)C1CC1)[C@@H](Cc1ccc(-n2cc(CCC(=O)NO)nn2)cc1)C(=O)OC", "cytotoxicity call": "inactive"}]}]}
